PMC13254600
Results are given in words; binding and its absence hold for the method and conditions named. In cells and extracts the contact can be indirect. Some results given as binding are weak or reduced against the parent protein; the word gives no strength. Where a sequence is shown, tags or fusion partners need not be part of it.

The chains behind the UniProt entries cited, without tags or fusion partners.
UniProt P38811: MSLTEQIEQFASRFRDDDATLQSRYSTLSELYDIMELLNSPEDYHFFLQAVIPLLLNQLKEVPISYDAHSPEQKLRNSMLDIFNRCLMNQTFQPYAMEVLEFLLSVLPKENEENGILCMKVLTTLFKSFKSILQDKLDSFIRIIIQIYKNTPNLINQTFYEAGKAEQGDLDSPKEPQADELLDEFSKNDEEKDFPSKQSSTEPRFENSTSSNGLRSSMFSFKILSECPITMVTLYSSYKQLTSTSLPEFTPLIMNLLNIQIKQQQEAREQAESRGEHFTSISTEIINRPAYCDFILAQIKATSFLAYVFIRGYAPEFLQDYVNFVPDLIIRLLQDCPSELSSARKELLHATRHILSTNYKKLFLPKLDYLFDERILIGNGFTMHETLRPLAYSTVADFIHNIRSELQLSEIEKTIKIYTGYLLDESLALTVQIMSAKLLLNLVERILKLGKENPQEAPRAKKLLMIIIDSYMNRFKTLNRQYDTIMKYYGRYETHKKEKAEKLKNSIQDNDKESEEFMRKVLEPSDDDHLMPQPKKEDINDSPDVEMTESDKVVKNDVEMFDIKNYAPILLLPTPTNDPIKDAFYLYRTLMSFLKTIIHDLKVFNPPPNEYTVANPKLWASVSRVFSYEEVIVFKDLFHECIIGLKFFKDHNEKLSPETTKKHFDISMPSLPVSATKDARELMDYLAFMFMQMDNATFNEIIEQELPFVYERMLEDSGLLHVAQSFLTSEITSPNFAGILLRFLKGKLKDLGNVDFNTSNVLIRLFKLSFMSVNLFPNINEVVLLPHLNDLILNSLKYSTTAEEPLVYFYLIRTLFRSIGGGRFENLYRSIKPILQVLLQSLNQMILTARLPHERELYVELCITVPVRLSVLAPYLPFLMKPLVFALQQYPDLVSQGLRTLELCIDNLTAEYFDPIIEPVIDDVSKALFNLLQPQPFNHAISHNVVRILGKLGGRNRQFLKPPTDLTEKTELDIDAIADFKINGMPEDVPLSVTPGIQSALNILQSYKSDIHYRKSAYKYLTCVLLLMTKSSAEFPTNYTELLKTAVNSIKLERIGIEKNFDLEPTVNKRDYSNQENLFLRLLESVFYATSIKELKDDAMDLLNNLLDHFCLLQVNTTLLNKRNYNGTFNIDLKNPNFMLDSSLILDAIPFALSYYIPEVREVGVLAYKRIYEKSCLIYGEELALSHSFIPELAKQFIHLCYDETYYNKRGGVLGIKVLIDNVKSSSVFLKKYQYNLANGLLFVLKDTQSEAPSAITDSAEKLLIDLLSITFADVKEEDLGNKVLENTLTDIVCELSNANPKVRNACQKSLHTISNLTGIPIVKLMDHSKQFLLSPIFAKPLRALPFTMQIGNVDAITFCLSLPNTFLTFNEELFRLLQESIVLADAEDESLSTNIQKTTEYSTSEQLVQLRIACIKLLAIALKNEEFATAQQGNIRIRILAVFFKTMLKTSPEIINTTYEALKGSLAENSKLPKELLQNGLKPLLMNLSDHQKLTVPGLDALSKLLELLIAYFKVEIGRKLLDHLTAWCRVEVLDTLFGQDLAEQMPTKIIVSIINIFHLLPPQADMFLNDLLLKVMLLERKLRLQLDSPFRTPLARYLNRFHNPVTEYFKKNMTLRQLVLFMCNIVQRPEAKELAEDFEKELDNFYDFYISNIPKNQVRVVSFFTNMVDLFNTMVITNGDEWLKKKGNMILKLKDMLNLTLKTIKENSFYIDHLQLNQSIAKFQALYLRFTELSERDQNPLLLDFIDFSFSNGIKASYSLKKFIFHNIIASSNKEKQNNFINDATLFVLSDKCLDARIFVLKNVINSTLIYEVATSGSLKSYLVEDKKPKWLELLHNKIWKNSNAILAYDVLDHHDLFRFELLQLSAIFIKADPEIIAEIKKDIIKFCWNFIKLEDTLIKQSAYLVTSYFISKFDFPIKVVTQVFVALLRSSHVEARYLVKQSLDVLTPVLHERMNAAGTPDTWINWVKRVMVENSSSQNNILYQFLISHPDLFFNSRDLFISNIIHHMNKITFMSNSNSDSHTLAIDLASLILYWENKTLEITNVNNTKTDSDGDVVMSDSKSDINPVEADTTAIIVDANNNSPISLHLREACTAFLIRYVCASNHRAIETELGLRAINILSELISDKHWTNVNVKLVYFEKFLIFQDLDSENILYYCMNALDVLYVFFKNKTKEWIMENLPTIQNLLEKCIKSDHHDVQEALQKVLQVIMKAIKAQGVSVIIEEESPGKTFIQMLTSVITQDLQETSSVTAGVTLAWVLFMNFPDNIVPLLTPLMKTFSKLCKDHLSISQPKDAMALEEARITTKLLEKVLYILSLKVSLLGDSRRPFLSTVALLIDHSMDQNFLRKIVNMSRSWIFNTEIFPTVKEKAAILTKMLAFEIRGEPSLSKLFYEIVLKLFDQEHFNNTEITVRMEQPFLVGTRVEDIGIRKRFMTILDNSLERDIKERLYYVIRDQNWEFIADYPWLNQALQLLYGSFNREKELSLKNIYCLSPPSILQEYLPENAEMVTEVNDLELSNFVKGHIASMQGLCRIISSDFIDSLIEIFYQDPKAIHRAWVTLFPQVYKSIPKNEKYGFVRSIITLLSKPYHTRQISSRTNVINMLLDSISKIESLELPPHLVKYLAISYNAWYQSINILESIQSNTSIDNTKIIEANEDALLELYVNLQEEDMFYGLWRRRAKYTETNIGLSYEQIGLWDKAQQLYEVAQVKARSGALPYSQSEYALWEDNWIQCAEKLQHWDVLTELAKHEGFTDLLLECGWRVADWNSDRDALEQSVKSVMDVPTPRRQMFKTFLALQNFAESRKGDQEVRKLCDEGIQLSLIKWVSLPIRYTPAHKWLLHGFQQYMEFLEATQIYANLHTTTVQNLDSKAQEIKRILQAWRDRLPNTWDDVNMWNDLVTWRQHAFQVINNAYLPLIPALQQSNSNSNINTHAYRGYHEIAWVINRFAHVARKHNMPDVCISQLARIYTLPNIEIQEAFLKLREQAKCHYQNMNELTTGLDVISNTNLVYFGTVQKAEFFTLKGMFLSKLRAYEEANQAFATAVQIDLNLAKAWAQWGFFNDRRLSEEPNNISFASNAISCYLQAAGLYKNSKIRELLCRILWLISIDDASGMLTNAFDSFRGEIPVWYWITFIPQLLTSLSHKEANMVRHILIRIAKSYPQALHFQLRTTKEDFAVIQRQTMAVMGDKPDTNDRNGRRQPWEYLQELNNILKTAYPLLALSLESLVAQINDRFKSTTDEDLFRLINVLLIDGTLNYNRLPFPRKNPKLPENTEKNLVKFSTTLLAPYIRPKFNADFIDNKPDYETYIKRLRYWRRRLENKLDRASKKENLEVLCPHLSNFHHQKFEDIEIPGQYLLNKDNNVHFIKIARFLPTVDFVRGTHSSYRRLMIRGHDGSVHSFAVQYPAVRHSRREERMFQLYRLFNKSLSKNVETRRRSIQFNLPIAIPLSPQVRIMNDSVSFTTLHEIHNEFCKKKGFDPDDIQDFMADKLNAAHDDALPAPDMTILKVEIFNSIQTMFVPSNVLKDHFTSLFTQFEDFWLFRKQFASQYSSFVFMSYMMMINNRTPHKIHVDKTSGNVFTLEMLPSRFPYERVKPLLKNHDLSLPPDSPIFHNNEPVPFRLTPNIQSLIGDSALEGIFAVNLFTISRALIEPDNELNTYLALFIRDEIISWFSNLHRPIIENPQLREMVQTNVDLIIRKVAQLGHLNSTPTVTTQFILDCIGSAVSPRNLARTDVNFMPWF

T1: Sfp1-TAP fusion protein (S. cerevisiae (endogenous locus in yeast cells)) (UniProt P32432)
T1 sequence: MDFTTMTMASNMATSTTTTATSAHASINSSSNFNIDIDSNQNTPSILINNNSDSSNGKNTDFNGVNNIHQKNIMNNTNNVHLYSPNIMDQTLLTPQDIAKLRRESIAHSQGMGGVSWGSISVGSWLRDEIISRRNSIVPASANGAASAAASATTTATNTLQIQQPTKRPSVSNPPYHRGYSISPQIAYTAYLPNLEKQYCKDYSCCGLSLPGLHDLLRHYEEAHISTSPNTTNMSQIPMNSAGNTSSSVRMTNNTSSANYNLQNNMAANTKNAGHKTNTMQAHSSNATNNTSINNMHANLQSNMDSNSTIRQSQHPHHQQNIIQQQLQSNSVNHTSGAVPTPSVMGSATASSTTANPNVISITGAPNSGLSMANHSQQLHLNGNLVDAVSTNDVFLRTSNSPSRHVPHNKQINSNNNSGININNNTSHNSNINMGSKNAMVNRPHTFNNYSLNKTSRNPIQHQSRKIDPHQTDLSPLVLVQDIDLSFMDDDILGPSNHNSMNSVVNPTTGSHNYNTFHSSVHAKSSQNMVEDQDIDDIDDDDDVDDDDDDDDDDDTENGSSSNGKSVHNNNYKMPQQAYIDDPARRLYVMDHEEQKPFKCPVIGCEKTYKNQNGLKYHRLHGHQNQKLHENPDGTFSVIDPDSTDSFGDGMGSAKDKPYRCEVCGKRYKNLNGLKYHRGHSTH

B1: Eaf1 (protein, UniProt Q06337 1-982)
chain: MSSRPSSAVPNSASLSEDQSSDRSKFPKADDLIDERDRKLTELYCVSRLNQLLELTDENKLRKEIDAFLKKNDIRRGIRFDEASLPKLLHTAATPITKKKLKDVNLINVPNQRLSDSKMSRELPENSENVSVKSESHFVPSHDNSIRENMMDSLRPAEKTGGMWNKRPLESTMGGEEERHEKRQKMQSQSLESSNNSEMASLPISPRPPVPNALAHYTYYENIEYPPADPTEVQPAVKFKDPLIKNIMAKEIDTSDHYNENNVDALETVFLLMNDYIPSKIPQALPLAELKYMSQTLPLINLIPRAHKALTTNIINNALNEARITVVGSRIEELRRLGLWSLRQPKRFIDPWKQHNTHQNILLEEAKWMQADFKEGHKYKVAICTAMAQAIKDYWTYGEICCVKRKTLLPGKENKLSDDGRISEKSGRPSDTSRNDSDISIAGKDDIGIIANVDDITEKESAAANDNDENGKNEAGAKSDFDFADGLLSQEGAHDQIISSIDTKLLLKKPSSSSEVVLIQHEVAASSALIETEESKKELAPPFKLSIFVDELNTFEKTLIQDLPLYNGINEERPKKDDSLPFIPISKSVVSLDDNGFYKLLERQLIDEEPSISQLSKRRGMFYGNRRNHYLRPPAVPSLRYLQNRTPTIWLSEDDQELVKNINTYGYNWELISAHMTHRLTYSYLSNIERRTPWQCFERFVQLNERFNFSDLKGPRAHSAQQWLIEAHKFQQRQNRRISPLGVNTESIQRGHRRLRWASMFEAIRKCMKKRENTPRPNPTQPRKPLDCKNMKVPTPAEMSLLKAQRDEALRRDIQLRRTVKNRLQQRQQQSQQAHSSRAQSPIPSNGKSSSNLARNGQASAPRPNQKQYTEQDIIESYSRKLLEQKPDIGPEMALKAAKNYYRTLREQQQQLKQHQIQQQRQQLQEESSHVQQLQQLQPGSQAPPPKSSPSQSSLSNISNINSAPRIKSPTPQEILQRFQKQ
B2: Arp4 (protein, UniProt P80428 1-489)
chain: MSNAALQVYGGDEVSAVVIDPGSYTTNIGYSGSDFPQSILPSVYGKYTADEGNKKIFSEQSIGIPRKDYELKPIIENGLVIDWDTAQEQWQWALQNELYLNSNSGIPALLTEPVWNSTENRKKSLEVLLEGMQFEACYLAPTSTCVSFAAGRPNCLVVDIGHDTCSVSPIVDGMTLSKSTRRNFIAGKFINHLIKKALEPKEIIPLFAIKQRKPEFIKKTFDYEVDKSLYDYANNRGFFQECKETLCHICPTKTLEETKTELSSTAKRSIESPWNEEIVFDNETRYGFAEELFLPKEDDIPANWPRSNSGVVKTWRNDYVPLKRTKPSGVNKSDKKVTPTEEKEQEAVSKSTSPAANSADTPNETGKRPLEEEKPPKENNELIGLADLVYSSIMSSDVDLRATLAHNVVLTGGTSSIPGLSDRLMTELNKILPSLKFRILTTGHTIERQYQSWLGGSILTSLGTFHQLWVGKKEYEEVGVERLLNDRFR
B3: Esa1 (enzyme, UniProt Q08649 1-445)
chain: MSHDGKEEPGIAKKINSVDDIIIKCQCWVQKNDEERLAEILSINTRKAPPKFYVHYVNYNKRLDEWITTDRINLDKEVLYPKLKATDEDNKKQKKKKATNTSETPQDSLQDGVDGFSRENTDVMDLDNLNVQGIKDENISHEDEIKKLRTSGSMTQNPHEVARVRNLNRIIMGKYEIEPWYFSPYPIELTDEDFIYIDDFTLQYFGSKKQYERYRKKCTLRHPPGNEIYRDDYVSFFEIDGRKQRTWCRNLCLLSKLFLDHKTLYYDVDPFLFYCMTRRDELGHHLVGYFSKEKESADGYNVACILTLPQYQRMGYGKLLIEFSYELSKKENKVGSPEKPLSDLGLLSYRAYWSDTLITLLVEHQKEITIDEISSMTSMTTTDILHTAKTLNILRYYKGQHIIFLNEDILDRYNRLKAKKRRTIDPNRLIWKPPVFTASQLRFAW

What was measured:
[1] = target: T1, Sfp1-TAP fusion protein (S. cerevisiae (endogenous locus in yeast cells)); experiment: co-IP; TAP affinity purification of the tagged bait (Sfp1-TAP or Epl1-TAP) from yeast cells, co-purifying proteins detected by Western blot; mock purification from an untagged strain as negative control
[2] = target: T1, Sfp1-TAP fusion protein (S. cerevisiae (endogenous locus in yeast cells)); experiment: condition: only cells treated with rapamycin (200 ng/ml) for 2 h; co-IP; TAP affinity purification of Sfp1-TAP from yeast cells treated with rapamycin (200 ng/ml) for 2 h to inhibit the TOR kinase, Western blot of Esa1

Row | Molecule | binding [1] | binding [2]
1 | Tra1 (from UniProt P38811 1-3744) | binds | 
2 | B1 | binds | 
3 | B2 | binds | 
4 | B3 | binds | no binding
